Test results taken from PubChem BioAssay AID540317 (National Center for Advancing Translational Sciences (NCATS), 2011).
The whole screen tested about 390,000 compounds, of which about 2,200 (0.56%) were called active. The shares of active, inactive and inconclusive entries below differ from those in the screen. Calls follow the shape of the dose curve; as a rule, active = well fitted inhibition curve with a large enough effect; inconclusive = small, poorly fitted or top-dose-only effect; inactive = no such curve, though single readings can be large or run the other way. Potencies of inconclusive entries are doubtful fits and often do not repeat.

Target: Chromobox protein homolog 1 (Homo sapiens) (UniProt P83916)
Test: HTS for Inhibitors of HP1-beta Chromodomain Interactions with Methylated Histone Tails; also: nearly all actives have a fitted effect of over 70% in size
Conditions: AlphaScreen HP1-beta / biotin-H3K9me3 peptide binding; series mostly up to 114 µM; activity change, negative = inhibition: at the top concentration
How it was run: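 AlphaScreen: HP1-beta (50 nM) preformed 30 min with biotin-H3(1-18)K9me3 peptide (50 nM) in PBS pH 7.4, 0.01% Tween-20. Compound added for 30 min at RT, then streptavidin donor/nickel chelate acceptor beads (10 ug/mL) for 30 min.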
Potency is read from the fitted curve at half-maximal effect; tags tell the direction and shape of the fitted curve.

Chain of UniProt P83916 (P83916 whole entry, looked up): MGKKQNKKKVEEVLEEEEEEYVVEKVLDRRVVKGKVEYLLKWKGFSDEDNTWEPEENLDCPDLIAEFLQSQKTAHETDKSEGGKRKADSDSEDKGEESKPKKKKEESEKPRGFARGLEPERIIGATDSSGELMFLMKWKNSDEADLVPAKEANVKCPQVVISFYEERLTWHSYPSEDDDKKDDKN

Row | SMILES | Potency | activity change, negative = inhibition
1 | c1ccc(-c2ccc(CN3CCSCC3)cc2)cc1 | inconclusive: 35.5 µM [inhibitor, partial curve] | 
2 | O=[N+]([O-])c1cc(/C=N\Nc2nc(-c3ccccc3)cs2)ccc1O | inconclusive: 11.2 µM [inhibitor, partial curve, poor fit] | 
3 | CC[C@]1(C(=O)OC)[C@H]2C(=O)N(C)C(=O)[C@H]2[C@H]2CN=C(SCc3ccc(C(=O)OC)cc3)N21 |  | inactive: 73.1%
4 | O=C(CCC1CCCC1)N1CCC(N2CCCCCC2)CC1 | inconclusive: 25.1 µM [inhibitor, partial curve] | 
5 | CN(C(=O)c1cccc(N2C(=O)C3CC=CCC3C2=O)c1)C1CCCCC1 (centres undefined) |  | inactive: 12.9%
6 | CCOC(=O)C1CCCN(S(=O)(=O)c2ccc3[nH]c(=O)oc3c2)C1 (centres undefined) |  | inactive: 10.9%
7 | CCC(C)NCCCCOc1ccc(Br)cc1 (centres undefined) | inconclusive: 15.8 µM [inhibitor, full curve, poor fit] | 
8 | C[C@]12c3[nH]c4cc(-c5ccco5)ccc4c3CCN1C(=O)[C@@H](CC(=O)NCC13CC4CC(CC(C4)C1)C3)C[C@@H]2C(=O)N1CCOCC1 | inconclusive: 17.8 µM [inhibitor, full curve] | 
9 | C/C(=C/c1ccccc1)C(=O)N1CCC(C)CC1 |  | inactive: 40%
10 | Cc1cc2ccccn2c1C(=S)NC(=O)c1ccccc1 | inconclusive: 10 µM [inhibitor, full curve, poor fit] | 
11 | CNC(=O)CSc1nnc(-c2ccco2)n1-c1cccc(OC)c1 |  | inactive: 19.5%
12 | COc1cccc(-c2nc(CS(=O)(=O)CC(=O)Nc3ccccc3Br)c(C)o2)c1 |  | inactive: 19.2%
13 | COc1cc(N(C)C)ccc1C=c1c2ccccc2n2c1cc(-c1ccccc1)[n+]2C | inconclusive: 44.7 µM [inhibitor, partial curve, poor fit] | 
14 | O=C(Nc1ccc(Cl)c(-c2nc3ccccc3[nH]2)c1)c1ccc2c(c1)OCO2 |  | inactive: 25.3%
15 | CN(C)c1cc2c(c(N(C)C)c1)C(=O)c1ccccc1C2=O | inconclusive: 3.98 µM [inhibitor, full curve, poor fit] | 
16 | N#CCCN(Cc1ccccc1)C(=S)Nc1ccccc1 | inconclusive: 39.8 µM [inhibitor, single point] | 
17 | CC(C)c1ccc(C(=O)CN2C(=O)NC3(CCc4ccccc43)C2=O)cc1 (centres undefined) |  | inactive: 18.1%
18 | CCCNC(=S)N1CCN(c2nc(-c3cccc(OC)c3)cs2)CC1 | inconclusive: 50.1 µM [inhibitor, partial curve] | 
19 | Cc1[nH]n(-c2ccccc2)c(=S)c1C=Nc1ccc([N+](=O)[O-])cc1 | inconclusive: 3.98 µM [inhibitor, full curve, poor fit] | 
20 | O=C(NC(=S)NNC(=O)c1ccccc1[N+](=O)[O-])c1ccccc1 | inconclusive: 89.1 µM [inhibitor, single point] | 
21 | CC1=NN(c2ccccc2)C(=O)/C1=C\c1cn(-c2ccccc2)nc1C | active: 8.91 µM | 
22 | O=C1CCCN2N=C(SCC(=O)Nc3ccccc3C(F)(F)F)SC2=N1 | inconclusive: 89.1 µM [inhibitor, single point] | 

Row | SMILES | Potency | activity change, negative = inhibition
23 | COc1ccc(OCCCN2CCCC(C)C2)cc1 (centres undefined) | inconclusive: 44.7 µM [inhibitor, partial curve, poor fit] | 
24 | CCc1ccc2c(c1)C(=O)c1ccccc1C2=O | inconclusive: 35.5 µM [inhibitor, partial curve] | 
25 | COc1c(O)ccc(/C=C(\C#N)c2nc3ccccc3[nH]2)c1[N+](=O)[O-] | inconclusive: 44.7 µM [inhibitor, partial curve] | 
26 | COc1ccc(S[C@@H](CCN2CC[C@H](NC(=O)OCc3ccccc3)CCC2=O)c2ccccc2)cc1 | inconclusive: 89.1 µM [inhibitor, single point] | 
27 | CC(C)COC(=O)N1C(COCc2ccccc2)CCC=CS1(=O)=O (centres undefined) |  | inactive: 49.5%
28 | S=C(c1ccc(-c2ccccc2Cl)o1)N1CCCCC1 | inconclusive: 25.1 µM [inhibitor, full curve, poor fit] | 
29 | O=C(Nc1ccc(N2CCOCC2)cc1)c1cccc(-n2cnnc2)c1 |  | inactive: -11.1%
30 | c1ccc(C2=Nc3c(ccc4ccccc34)C(c3ccncc3)=NN2)cc1 | inconclusive: 39.8 µM [inhibitor, partial curve] | 
31 | CCn1nc(C)c(CN2CCC(C(=O)Nc3cccc(-c4cccc(F)c4)c3)CC2)c1C |  | inactive: 33%
32 | O=C(NCCSc1ccccn1)c1ccc(Cl)cc1Cl | inconclusive: 79.4 µM [inhibitor, single point] | 
33 | COc1ccccc1-n1c([S-])c(C(=O)Nc2ccccc2C(F)(F)F)[n+]2ccc(C(=O)NCCO)cc12 | inconclusive: 89.1 µM [inhibitor, single point] | 
34 | CCN(N=Nc1cccc([N+](=O)[O-])c1)c1cccc([N+](=O)[O-])c1 |  | inactive: -33.5%
35 | CN(C)c1oc(-c2ccc(OCc3ccccc3)cc2)nc1C#N | inconclusive: 31.6 µM [inhibitor, partial curve] | 
36 | O=C1c2cccc3c([N+](=O)[O-])ccc(c23)C(=O)N1CC1CCCO1 (centres undefined) | inconclusive: 50.1 µM [inhibitor, partial curve] | 
37 | CC(=O)OC(C)C1C2=C(C(=O)CC1(C)O)C(=O)c1c(ccc(-c3ccc4c(c3O)C(=O)C3=C(C4=O)C(C(C)OC(C)=O)C(C)(O)CC3=O)c1O)C2=O (centres undefined) | inconclusive: 50.1 µM [inhibitor, partial curve, poor fit] | 
38 | NC(=S)NNC(=O)Nc1cccc(Cl)c1 |  | inactive: 25.8%
39 | CC(/C=N/n1c(-c2cc(C)[nH]n2)n[nH]c1=S)=C\c1ccco1 | inconclusive: 70.8 µM [inhibitor, partial curve] | 
40 | Cc1ccc(S(=O)(=O)n2nc(-c3ccco3)nc2SCc2ccccc2)cc1 |  | inactive: 20.7%
41 | O=C(NNC1=C(C(=O)C(F)(F)F)CCC1)c1cccnc1 |  | inactive: 22.4%
42 | Cc1cc(CNC(=O)CC2C(=O)NCCN2Cc2ccccc2)nn1C (centres undefined) |  | inactive: 51.4%
43 | Cc1cccc(OCC(=O)Nc2ccc3nc(C)sc3c2)c1 | inconclusive: 89.1 µM [inhibitor, single point] | 
44 | Cc1ccc(S(=O)(=O)Nc2ccc3cc([N+](=O)[O-])ccc3c2[N+](=O)[O-])cc1 |  | inactive: -16.4% [at 57 µM]
